Hit rate of the full screen: of about 340,000 compounds, about 6,900 (2%) were called active. Rule as the data show it: active = inhibition above about 30%; inactive = below that, where a call was filed. Only a part is listed here, and it is no random draw. Entries without a call were filed so in the source.
Biological target: D(2) dopamine receptor (Homo sapiens) (UniProt P14416)
Experiment: HTS Assay for Allosteric Antagonists of the Human D2 Dopamine Receptor: Primary Screen for Antagonists; also: 0% is about no effect
Conditions: HEK293 TREx D2 cells, calcium flux, dopamine EC80; at 10 µM; stronger effect = higher value
How it was run: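 Calcium mobilization kinetics were recorded at 1 s intervals in tetracycline-induced HEK293 T-REx D2 cells, first for 180 s after compound addition and then 180 s after EC80 dopamine.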

Chain of UniProt P14416 (P14416 whole entry, looked up): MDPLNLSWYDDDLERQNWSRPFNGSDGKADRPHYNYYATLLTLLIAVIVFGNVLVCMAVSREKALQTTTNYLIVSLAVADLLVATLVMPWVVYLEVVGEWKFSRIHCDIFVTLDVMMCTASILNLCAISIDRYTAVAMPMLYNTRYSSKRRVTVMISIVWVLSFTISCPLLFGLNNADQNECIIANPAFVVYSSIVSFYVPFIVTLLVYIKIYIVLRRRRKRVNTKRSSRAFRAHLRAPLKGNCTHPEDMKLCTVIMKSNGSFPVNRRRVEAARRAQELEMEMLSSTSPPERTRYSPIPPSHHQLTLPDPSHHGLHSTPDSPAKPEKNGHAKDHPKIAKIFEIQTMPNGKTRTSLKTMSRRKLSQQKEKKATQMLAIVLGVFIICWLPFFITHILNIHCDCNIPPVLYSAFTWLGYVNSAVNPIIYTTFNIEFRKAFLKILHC

Row | Compound | inhibition
1 | CNC(=O)c1nn(-c2ccc(Cl)cc2)ccc1=O | active: 33.4%
2 | Cc1ccc(NC(=O)C2CCCN2S(=O)(=O)c2ccc3nc(-c4ccccc4)[nH]c3c2)cc1C (stereo not given) | -5.71%
3 | COc1ccc(C(CNC(=O)c2ccc3c(c2)OCCO3)N(C)C)cc1 (stereo not given) | active: 44.5%
4 | Cc1ccccc1C(=O)Nc1ccccc1-c1nc(-c2ccccc2)no1 | 25.9%
5 | CCc1nc2nc(C)c(NS(=O)(=O)c3ccc(F)c(C)c3)c(=O)n2[nH]1 | 1.09%
6 | CCOc1ccc2nc(N3CCCC(C(=O)NCCc4ccc(C)cc4)C3)sc2c1 (stereo not given) | 6.34%
7 | CC(C(=O)Nc1ccccc1)n1nnc2sc3c(c2c1=O)CCCC3 (stereo not given) | 4.56%
8 | Cc1ccc(NC(=O)CSc2nc3ccccc3n2CC(=O)N(C)C2CCCCC2)cc1C | 24.8%
9 | Cc1c2cnn(-c3ccccc3)c(=O)c2c(C)n1C(C)C(=O)NCc1cccc(Br)c1 (stereo not given) | -4.77%
10 | COc1cccc(NC(=O)Cn2c(=O)n(CCc3cccc(C)c3)c(=O)c3ccccc32)c1 | 5.87%
11 | CCOCCCn1c(=N)c(C(=O)NCc2ccccc2)cc2c(=O)n3ccccc3nc21 | -17.6%
12 | Cc1cccc(NC(=O)c2c(NC(=O)c3ccco3)sc3c2CCC(C)C3)c1 (stereo not given) | -28.3%
13 | COc1ccc(-n2nc(-c3ccc(C)cc3)c3cnc4cc(F)c(F)cc4c32)cc1 | -0.44%
14 | COc1cccc(CNC(=O)c2ccc3c(c2)nc2n3CCC(C)C2)c1 (stereo not given) | -7.46%
15 | CCCCNCCOCCOc1ccccc1-c1ccccc1 | active: 76.4%
16 | CCCN(CCC)C(=O)c1nn(C)c2c1CSc1ccccc1-2 | 20.6%
17 | CC(C)C(=O)Nc1cccc(C(=O)Nc2nnc(C(F)(F)F)s2)c1 | -5.07%
18 | CCOc1ccccc1NC(=O)CCc1c(C)nc2cc(-c3ccccc3)nn2c1C | -4.12%
19 | Cc1ccc(NC(=O)CN(c2ccc(C)cc2)S(=O)(=O)c2cccc3nonc23)cc1 | -1.14%
20 | Cc1ccc2nc(CN3CCN(S(=O)(=O)c4ccc(C)c(C)c4)CC3)oc2c1 | 9.3%
21 | CC(=O)c1c(C)n(-c2ccc(C)cc2)c2ccc(OC(=O)COc3ccccc3)cc12 | 0.182%
22 | Cc1ccc(C2CC(=O)n3nc(-c4cccc(C)c4)nc3S2)cc1 (stereo not given) | -8.73%
23 | CN(C)c1ccc(CNC(=O)C2CCN(S(=O)(=O)c3ccc4[nH]c(=O)ccc4c3)CC2)cc1 | 11.7%
24 | CC(C)C(=O)Nc1nnc(SCc2cc(=O)n3ccccc3n2)s1 | -2.7%

Row | Compound | inhibition
25 | COc1cc(-c2ccno2)ccc1S(=O)(=O)N1CCN(c2ccccc2)CC1 | -28%
26 | CC1=C(C(=O)Nc2cccnc2)C(c2ccccc2Cl)n2nc(-c3ccccc3)nc2N1 (stereo not given) | 3.56%
27 | Cc1cc(NC(=O)CSc2ncc(C(=O)Nc3ccc(C)c(C)c3)c(=O)n2C)no1 | 20.7%
28 | Cc1cccc(Nc2nc3c(S(=O)(=O)c4ccc(Br)cc4)nnn3c3ccsc23)c1C | 3.28%
29 | Cc1cc(C)c2oc(-c3cccc(NC(=O)COc4ccccc4Cl)c3C)nc2c1 | 23.2%
30 | CCOc1ccccc1C(=O)NCc1ccc2c(c1)CCN2C(=O)c1ccccc1 | 20.1%
31 | Cc1ccc(NC(=O)CCSc2nc(-c3ccc4c(c3)OCO4)cc(C(F)(F)F)n2)c(C)c1 | -9.16%
32 | COc1ccc(CCNC(=O)c2ccc(Cn3c(SCC(=O)NCCC(C)C)nc4cc5c(cc4c3=O)OCO5)cc2)cc1OC | 0.241%
33 | CS(=O)(=O)c1ncc(Cl)c(C(=O)Nc2c(C(=O)c3ccc(Cl)cc3)oc3ccccc23)n1 | 25.3%
34 | Clc1cccc(-n2ncc3c(NCCCN4CCOCC4)ncnc32)c1 | 21.6%
35 | CC1CCN(C(=O)CSc2nnc(NC(=O)Nc3ccccc3)s2)CC1 | -4.98%
36 | Cc1ccc2c(c1)N(C(=O)CCC(=O)NCc1cccs1)CC(C)O2 (stereo not given) | 10.5%
37 | COC(=O)c1ccccc1NC(=O)Cn1c(CCC(=O)O)ccc1-c1ccc(C)cc1 | 19.8%
38 | Cc1cccc(CC(=O)Nc2c(C(=O)Nc3cccc(F)c3)oc3ccccc23)c1 | -10.3%
39 | Cc1cc(C)cc(C(=O)O/N=C(\N)c2ccc(Br)cc2)c1 | active: 35.2%
40 | CC1CCN(CC(O)CN2c3ccccc3Sc3ccccc32)CC1 (stereo not given) | active: 70.9%
41 | CCOC(=O)c1c(NC(=O)COc2ccc(C(C)(C)C)cc2)sc2c1CCCC2 | 2.66%
42 | Cc1ccc(Cc2nc3ccccc3nc2SCC(=O)NCc2ccccc2Cl)cc1 | -2.92%
43 | Cc1ccc(-c2nnn(CC(=O)N(c3ccccc3)C(C(=O)NC3CCCC3)c3ccco3)n2)o1 (stereo not given) | active: 32.8%
44 | CCc1cccc(CC)c1NC(=O)Cn1nnc2sc3c(c2c1=O)CCCC3 | 3.39%
45 | Cc1ccc(NC(=O)c2c(C)nn(-c3ccccc3)c2-n2cccc2)c(Cl)c1 | -9.36%
46 | CCOc1cccc(C(=O)N(Cc2ccc(F)cc2)Cc2ccco2)c1 | 0.538%
47 | Cc1ccc(N2C(=O)CCSC23C(=O)N(Cc2ccc(F)cc2)c2ccccc23)cc1 (stereo not given) | 5.11%
48 | COCCn1c(SCC(=O)c2ccc(F)cc2)nc2cc(C(=O)NC3CCCC3)ccc2c1=O | 2.72%

Row | Compound | inhibition
49 | Cc1ccc(N2C(=O)CS(=O)(=O)C23C(=O)N(Cc2ccc(Cl)cc2)c2ccccc23)cc1C (stereo not given) | 16%
50 | COc1ccc(OC)c(NC(=O)Cn2c(=O)n(-c3ccc(Cl)cc3)c(=O)c3c(C)c(C)sc32)c1 | -6.61%
51 | COc1ccc(Cl)cc1NC(=O)C1CCN(S(=O)(=O)c2ccc(F)cc2)CC1 | 14.5%
52 | CCOc1ccccc1NC(=O)CSc1ccc2nc(-c3ccccc3)cn2n1 | 1.16%
53 | CCOc1ccc(/C=C/c2nc(C#N)c(NCCCN(C)C)o2)cc1 | -1.75%
54 | CC/C(=N/Nc1ccc(Cl)cc1)c1cnnc(SC)n1 | active: 33.6%
55 | CCc1ccc2oc(-c3ccc(NC(=O)c4cccc(Cl)c4Cl)cc3)nc2c1 | -6.6%
56 | O=C(Cn1cnc2c(nc3n2CCCCC3)c1=O)Nc1cccc(C(F)(F)F)c1 | -19.3%
57 | COC(=O)c1ccccc1NC(=O)Cn1c(=O)n(CCCC(=O)NCc2ccccc2Cl)c(=O)c2ccccc21 | -13.9%
58 | COc1ccc(N2CCN(CCCNC(=O)c3ccc4nc(Cc5ccccc5)oc4c3)CC2)cc1 | 3.58%
59 | CCOc1ccc(CNC(=O)C2CCCN(c3nn4cc(-c5ccc(F)cc5)nc4s3)C2)cc1 (stereo not given) | -28.2%
60 | COc1ccc(-n2c(=O)c3c(c4cc(OC)ccc4n3C)n(CC(=O)N3CCCC3)c2=O)cc1 | 3.21%
61 | CCc1ccc(NC(=O)CCCc2nnc3n(CCCOC)c(=O)c4sccc4n23)cc1 | -0.53%
62 | Cc1cc(C)cc(NC(=O)c2cccc(C(=O)Nc3cc(C)cc(C)c3)c2)c1 | -7.63%
63 | CSc1cccc(NC(=O)CN2C(=O)CCc3cc(S(=O)(=O)N4CCCCC4)ccc32)c1 | -12.5%
64 | Cc1ccc(NC(=O)C(C)Sc2nc3c(c(=O)[nH]2)CCCC3)cc1Cl (stereo not given) | 6.69%
65 | COc1ccc2c(c1)CC(C(=O)NCCc1ccc(S(N)(=O)=O)cc1)CO2 (stereo not given) | 23.8%
66 | Cc1ccc(C)c(OC(=O)CSc2nnc(-c3cccs3)o2)c1 | -18%
67 | O=C1c2ccccc2C(=O)N1CCCc1nc(-c2ccccn2)no1 | active: 35.9%
68 | CCCC(=O)Nc1cc(-c2nnc3c4ccccc4c(C)nn23)ccc1C | -4.83%
69 | Cn1c(=O)n(C)c2cc(N3CCOCC3)c(NS(=O)(=O)c3ccc(Cl)cc3)cc21 | -3.4%
70 | Cc1ccc(-n2c(=O)c3c(cnn3C)n(CC(=O)Nc3cccc(C)c3)c2=O)cc1 | -0.255%
71 | COc1ccccc1N1CCN(C(=O)c2cc3c(-c4ccccc4F)nn(C)c3s2)CC1 | -8.28%
72 | COc1ccc(CCNC(=O)Cn2c(-c3ccc(F)cc3)cc(C(C)=O)c2C)cc1OC | -7.73%

Row | Compound | inhibition
73 | CCOC(=O)Cn1c(CN2CCN(c3ccc(OC)cc3)CC2)nc2c1c(=O)[nH]c(=O)n2C | 7.16%
74 | Cc1cc(=O)n(Cc2c(F)cccc2Cl)c2c1c(C)nn2C | -2.48%
75 | CCOc1ccc2nc(N(Cc3cccnc3)C(C)=O)sc2c1 | 1.84%
76 | O=C1CC(=O)Nc2cc(S(=O)(=O)Nc3ccc(F)cc3Cl)ccc2N1 | 5.79%
77 | Cc1ccc(OCCSc2nc3ccc(NC(=O)c4ccco4)cc3s2)cc1 | -12.2%
78 | COc1ccc(-c2cc3ccc(O)c(CN4CCCCC4C)c3oc2=O)cc1OC (stereo not given) | 9.09%
79 | CC(=O)N1CCc2cc(S(=O)(=O)NC(Cc3ccccc3)C(=O)NCc3ccccc3Cl)ccc21 (stereo not given) | 13.9%
80 | O=C(CCNS(=O)(=O)c1ccc2c(c1)CCN2C(=O)C1CC1)N1CCN(c2cccc(C(F)(F)F)c2)CC1 | 18%
81 | COCc1oc2ccc(NS(=O)(=O)c3ccc(C)cc3)cc2c1C(=O)OC | -7.66%
82 | Cc1ccc(CNC(=O)CCc2nc3cccnc3n2Cc2ccccc2)cc1 | 11%
83 | CC(=O)Nc1ccc(NC(=O)C(NS(=O)(=O)c2ccc(Br)s2)c2ccccc2)cc1 (stereo not given) | -8.88%
84 | COc1cc(NC(=O)Cn2nnnc2-c2ccccc2F)cc(OC)c1OC | -13.2%
85 | COc1ccc(C(=O)NC2CC3CCCC(C2)N3Cc2ccccc2)cc1OC (stereo not given) | active: 81.7%
86 | Cc1ccc(Cn2cc(S(=O)(=O)c3ccc(Cl)cc3)c(=O)c3cc4c(cc32)OCO4)cc1 | -0.324%
87 | COCCn1c(C)cc(/C=C(\C#N)C(=O)OC(C)C(=O)Nc2ccc(NC(C)=O)cc2)c1C (stereo not given) | active: 33.4%
88 | CCN(C(=O)Cn1c(=O)n(Cc2ccc3c(c2)OCO3)c(=O)c2ccc(C(=O)NC3CCCCC3)cc21)c1cccc(C)c1 | 10.8%
89 | COc1ccc(OC)c(S(=O)(=O)N2CCN(Cc3nc4ccc(C)cc4o3)CC2)c1 | 16.6%
90 | COC(=O)c1ccc(-n2c(/C=C/c3cc(OC)c(OC)c(OC)c3)nc3cc(Cl)ccc3c2=O)cc1 | 6.94%
91 | Cc1cccc2c(=O)cc(CSc3ccccc3NC(=O)C(C)(C)C)[nH]c12 | -8.13%
92 | CCCC(=O)Nc1ccccc1C(=O)OCc1cc(=O)n2nc(C(C)C)sc2n1 | 4.08%
93 | COc1ccc(OCc2ccc(-c3nc(C#N)c(NCc4cccnc4)o3)o2)cc1 | 12.4%
94 | CCOC(=O)c1cc(S(=O)(=O)NCc2ccc(OC)cc2)[nH]n1 | 0.239%
95 | CCC(=O)N1CCCc2cc(S(=O)(=O)N3CCC(C(=O)Nc4ccc(C#N)cc4)CC3)ccc21 | 28.1%

— PubChem BioAssay AID485344 (National Center for Advancing Translational Sciences (NCATS), 2010)
